The results in this text go back to the RNAGym collection of RNA variant scans (doi:10.7554/elife.90254).

Read counts are not given, so values of variants with three or more changes are uncertain.

First the molecules themselves.
B1: LINE1-mini (parent)
chain: GGCAGAGCUCAACACAGCGUGGCAAAGUGGCUGUGGCUAGACUGCC

The variants in this data set derive from B1. In words: self-cleavage, relative activity (ratio to wild type); higher = more cleavage; in vitro, sequencing; the parent is a self-cleaving ribozyme.
On to G5A G19A G35C U43A, for which the self-cleavage amounted to 0.05.
For the variant G5A G7C A26U G27A C46G, the self-cleavage worked out at 0.07.
Regarding G7U U9A C10G G22C G33U, the self-cleavage stood at 0.05.
A4C G29A G35C: the self-cleavage was found to be 0.16.
Take C31G U38G A39G: the self-cleavage was 0.02.
As for C23G U32C U34G, the self-cleavage was 0.04.
As for A14U A26G C37A, the self-cleavage was found to be 0.05.
The figure for A4G C15G U38A is 0.01; for A14C G21U C31U it is 0.01; for A4U A6G C15G G27C G36C U38A G40A it is 0.22.
In the case of C3U A16G C37U, the self-cleavage was determined as 0.04.
In the case of G1A U34A G35U, the self-cleavage is 0.12.
As for G2U A12C G36U A39C, the self-cleavage stood at 0.03.
G7U G35A C46G: the self-cleavage is 0.36.
Regarding C3A C23U G44A C45U, the self-cleavage is 0.63.
Take C18A G21A C42U: the self-cleavage worked out at 0.36.
G5C G7A C15A A25U U34G: the self-cleavage turned out to be 0.2.
The figure for A26G C31A G35U is 0.42; for C3U U20C A24C C31A it is 0.23; for C15G G22A U28G U32C it is 0.01.
For the variant G17A C37G U38G A41G, the self-cleavage stood at 0.
The result for G1A C8G G33U reads 0.05; that for G19U U20G C23A G29U G36C, 0.16.
On to C10A C13G G19C G36U, for which the self-cleavage worked out at 0.
The result for G17U A24G C31G reads 0.46; that for G1A A11G G22A, 0.04; that for G1U A14U A24U G30U C42U, 0.04.
On to A16U G21U G29U U34G, for which the self-cleavage was found to be 0.02.
With G1C G2A G19U C42U, the self-cleavage came to 0.01.
Take C13G U20A U32G G40U U43A: the self-cleavage worked out at 0.01.
With G1C G5A C23A C46A, the self-cleavage worked out at 0.02.
With C3G C15A U38A, the self-cleavage was determined as 0.18.
As to G27C U28A U43A, the self-cleavage is 0.01.
Regarding A4U U20G C23U G27C U38G, the self-cleavage came out at 0.01.
Regarding G5C U9A G17A U38G, the self-cleavage was 0.12.
For the variant G21C C45G C46G, the self-cleavage turned out to be 0.16.
The result for G2U C10A G30C C46U reads 0; that for G2A A14G U20C G22A G44C, 0.12; that for U9A G27A G29C G35U, 0.03.
In the case of A41C C42U G44C, the self-cleavage was 0.03.
Regarding A4G U9A A11G C23A, the self-cleavage was found to be 0.01.
As for C3U U20C G27A C31A U38G U43A C46A, the self-cleavage was found to be 0.01.
In the case of C13G G33C G35U G36U, the self-cleavage was 0.04.
Take C8G A24C G27U G33U G40C: the self-cleavage is 0.02.
The result for G2U C18U U28C reads 0.04; that for C3U A11U G21C A24G, 0.11; that for A14C C18G C23A G27A G33A U38A, 0.16.
With A12G A14U G35A, the self-cleavage amounted to 0.01.
Turning to G19U G21U G33C U34C, the self-cleavage was 0.
The result for U9A G17A G40U reads 0.28.
Consider G1C A26G G36U, for which the self-cleavage amounted to 0.01.
In the case of G19U C23A G33A, the self-cleavage worked out at 0.32.
The result for G2U C10A A11G G19A C37U C42U U43C reads 0.01.
Consider U38G G40U C42U, for which the self-cleavage amounted to 0.02.
For the variant G2C A4G G40A, the self-cleavage was found to be 0.01.
For the variant G2U C10U A11C U28A, the self-cleavage came to 0.02.
With C3A A6U A11G A14U A39G, the self-cleavage is 0.04.
On to G2U A16U A26C U43A, for which the self-cleavage stood at 0.08.
The result for A6C A11C G21U reads 0.02; that for A14G U34C C37G, 0.01.
C3G A24G C37G: the self-cleavage came to 0.06.
The figure for G5U A6U C10A is 0.04; for G2U U9C C13A G36A C42U it is 0.02; for A4U G17A U28G it is 0.04.
The figure for A16U G30C U43C C45G is 0.08; for G7U C15G A25C G29U A39G it is 0.05; for G1U G19C C42U it is 0.05.
With G17A G21A A41U, the self-cleavage was found to be 0.07.
With G2A G22U C31U, the self-cleavage came to 0.43.
In the case of G2C A4G G35U, the self-cleavage turned out to be 0.02.
Regarding G19U C37U U43C, the self-cleavage worked out at 0.05.
For the variant G5U U9G G29U U34C, the self-cleavage was 0.01.
With G2U A6C A12C G30C U32G U34G C45G, the self-cleavage came out at 0.01.
The result for A16G C18G A24U reads 0.04.
The figure for C18U C42A G44U is 0.11; for G2U G5A C15A A16G it is 0.11; for C8U A11C G19A U20C A25U A39C it is 0.
Consider G1C G27C U32C, for which the self-cleavage is 0.03.
With G1A C18U U20G C45U, the self-cleavage amounted to 0.12.
The result for G1A U20G G29U G30A reads 0.25.
G2C C8U G21U U34A: the self-cleavage was 0.13.
Take G2C G7U G40A: the self-cleavage came out at 0.23.
The result for G2C A14C C18U G27A G33C C42G reads 0.03; that for C3A G19C U43A, 0.11; that for A4C G36A U43A C45G, 0.04.
A4U A14G A16C G17C C37G C45A: the self-cleavage was found to be 0.24.
A11C C18A G44C: the self-cleavage came out at 0.01.
Take C8A A14U C15U G21C U38A: the self-cleavage is 0.02.
The figure for G1C G7U A16G C42A is 0.01.
For U9C C10A U20A, the self-cleavage worked out at 0.03.
C15A G29U G44A: the self-cleavage is 0.03.
As for A6G G30C U32A G35U G36A A39G, the self-cleavage came out at 0.01.
As for A24U A25U G30A, the self-cleavage came out at 1.97.
C10A C13G A16G G22U G29U C42U: the self-cleavage was 0.
The result for G27C G30C C42G reads 0.01.
The result for C3U G17U G29U reads 0.05.
As for G2A G27A U28A U34A A41C, the self-cleavage was determined as 0.01.
The figure for A6U C18U G21A U38A A39U is 1.35; for C3G C10G C45A it is 0.03; for A4C A12G C31A A39C G40C it is 0.02.
The figure for C8U C15A G27U U38C is 0.09.
Take G1U U9C A24G A25C: the self-cleavage was 0.03.
U9G C13U G21A G22C C23A: the self-cleavage is 0.06.
G1C A4C G27U C42G: the self-cleavage was 0.03.
In the case of C3A G5U C13G G17U G27A C42A, the self-cleavage was determined as 0.12.
With A4U C23G G36C, the self-cleavage was found to be 0.1.
The result for G1A C8G C10G reads 0.07.
As for C15U G22C C23U A26C, the self-cleavage was determined as 1.35.
With C13A A14G G17C U28A, the self-cleavage came to 0.08.
For the variant G2A C3U U9C A11G G22U A25G, the self-cleavage amounted to 0.04.
The result for C8A U9G G36U reads 0.11; that for G30U C42G U43A, 0.01.
In the case of C3U G5A G36C A41C U43G, the self-cleavage is 0.08.
The result for C13G C23A A26U G27C U28A C42A reads 0.04; that for G19A G27A G30C, 2.23.
On to C10A A12U C13A C15U G36U, for which the self-cleavage worked out at 0.03.
The result for C3U C10G U34G G40C reads 0; that for U9G A24C C46G, 0.05.
Turning to U28G G36U U43C G44A, the self-cleavage came out at 0.14.
As to C10G A11G G17C G30C G33U, the self-cleavage turned out to be 0.02.
With A24U U34A G36A C45A, the self-cleavage worked out at 0.01.
Turning to A12G G19C G44A, the self-cleavage is 0.02.
Take U9A G27A G36A: the self-cleavage was 1.02.
The result for G5U A14C G21C C31U reads 0.23; that for C3U G5C A16G G33A, 0.07; that for C3A A6G G7C C42U, 0.09.
For C10U A16C A25U C37U C42G, the self-cleavage amounted to 0.04.
The figure for G30A G33A U38A C42A is 0.02; for C8G C10A G33C it is 0.06.
As to C8U C10G A12G A39C, the self-cleavage was found to be 0.04.
C15U C23A A25C: the self-cleavage was determined as 0.25.
In the case of C8G C15U A16U G30C C31G C37U, the self-cleavage was 0.05.
As for U20A G21U A25C U32G U38C, the self-cleavage is 0.01.
Take G7U C10A G17C C46A: the self-cleavage was determined as 0.02.
For G2U A14U C31U, the self-cleavage came out at 0.05.
The figure for C3U G7C C18U G30A is 0.3; for A11U U32C C46A it is 0.03.
Regarding A11G G29U G36U, the self-cleavage stood at 0.02.
For G1U C18G C31U, the self-cleavage worked out at 0.01.
The result for C8A G17C C42A C45A reads 0.09; that for G7U A39G G40U, 0.08; that for G29U G33U C46A, 0.1.
For the variant G2U C15G A16U G35C G40C, the self-cleavage stood at 0.01.
The figure for A14G A24G G33A U34C G40U is 0.14; for G1U G27C C31U A41C C42A it is 0.
On to C8U G27U C31G G35U, for which the self-cleavage amounted to 0.01.
The figure for A4C G27C G29U G33C G35U is 0.06; for G1C C15G C18G C31U C37G it is 0; for G1C C23G U32C G33A it is 0.01.
For the variant C3A G7C G30A, the self-cleavage is 0.08.
For the variant A6C C13A C18U, the self-cleavage was 0.01.
The result for G2C C15U U28C U38C U43C reads 0.07; that for G17A G19U G22U, 0.23.
G19U U28G G30A: the self-cleavage amounted to 1.28.
The result for C31U U32A C37U reads 0.06.
Take G1A G2A U9G C10G U20G: the self-cleavage is 0.03.
Take A4C A6U G7C A16C A24G A25G U28C: the self-cleavage came to 0.02.
In the case of A6C G44C C45A, the self-cleavage is 0.37.
For C8A G21A C37G, the self-cleavage was 0.7.
For C13A G30A C46A, the self-cleavage is 0.05.
Consider C10A A14U A16G G22C G30U A39U G40A, for which the self-cleavage stood at 0.
As for G2U G5C U20G, the self-cleavage stood at 0.01.
The figure for C18A G22C G27A G36A A41C is 0.03; for A11U G29A U34C it is 0.04; for G2A A12C C18G U34G G36A it is 0.01.
A6C C10A G29U: the self-cleavage is 0.03.
In the case of U9C A12U G44U, the self-cleavage is 0.01.
